In the supplement of paper PMC12009370:
Some of the results follow. Most values come without repeats; read them as rough.

tested on: SK-N-AS; assay: drug sensitivity score (DSS) in combination with GSK2830371 (DSS (score)); neuroblastoma lines; SL-176 and GSK2830371 are WIP1 inhibitors; higher = more cytotoxic; extreme values may be limits of the assay; conditions: 72 h; co-treatment: GSK2830371 at IC25 in IMR-32
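Also: neuroblastoma cells in 384-well plates, each compound at five concentrations, luminescence read-out, DSS derived from fitted concentration-response curve combining IC50 with minimum and maximum inhibition.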

SMILES	drug sensitivity score
CCCCNc1ncc(C(=O)NCc2ccc(-n3ccnc3)cc2)c(NC2CCC(O)CC2)n1 (stereo unspecified)	1.6
CN(C)C(=O)c1cc2cnc(Nc3ccc(N4CCNCC4)cn3)nc2n1C1CCCC1 [Ribociclib]	6
Cc1ccc(NS(=O)(=O)c2cccc(C#N)c2)c2[nH]cc(C#N)c12	19.2
COc1cccc2c1C(=O)c1c(O)c3c(c(O)c1C2=O)C[C@@](O)(/C(CO)=N/NC(=O)CCCCCN1C(=O)C=CC1=O)C[C@@H]3O[C@H]1C[C@H](N)[C@H](O)[C@H](C)O1 [Aldoxorubicin]	8.5
NC1(c2ccc(-c3nc4ccn5c(=O)[nH]nc5c4cc3-c3ccccc3)cc2)CCC1	2.1
O=C(/C=C/c1cccnc1)NCCCCC1CCN(C(=O)c2ccccc2)CC1 [Daporinad]	30.6
CCN(CC)CCNC(=O)c1c(C)[nH]c(/C=C2\C(=O)Nc3ccc(F)cc32)c1C [Sunitinib]	2.6
CNCc1ccc(-c2[nH]c3cc(F)cc4c3c2CCNC4=O)cc1 [Rucaparib]	0
Cc1cc(F)c(C(=O)Nc2cccc(-c3nncn3C(C)C)n2)cc1-n1cnc(C2CC2)c1 [Selonsertib]	0
C[C@@H]1CN(Cc2ccc(F)cc2)[C@@H](C)CN1C(=O)c1cc2c(C(=O)C(=O)N(C)C)cn(C)c2cc1Cl [Talmapimod]	0
CC(=O)O[C@H]1C(=O)[C@@]2(C)[C@H]([C@H](OC(=O)c3ccccc3)[C@]3(O)C[C@H](OC(=O)[C@H](O)[C@@H](NC(=O)c4ccccc4)c4ccccc4)C(C)=C1C3(C)C)[C@]1(OC(C)=O)CO[C@@H]1C[C@@H]2O [Paclitaxel]	25.9
CN1CC[C@H](c2c(O)cc(O)c3c(=O)cc(-c4ccccc4Cl)oc23)[C@H](O)C1 [Alvocidib]	19.2
COc1cccc2c1C(=O)c1c(O)c3c(c(O)c1C2=O)C[C@@](O)(C(=O)CO)C[C@@H]3O[C@H]1C[C@H](N)[C@@H](O)[C@H](C)O1 [Epirubicin]	8.3
Cc1cc(-c2nc(-c3ccc(OC(F)(F)F)cc3)no2)nn1Cc1ccnc(N2CCN(C3CC3)CC2)c1	22
CCN(CC)CCNC(=O)c1c(C)[nH]c(/C=C2\C(=O)Nc3ccc(-c4csc(-c5ccccc5)n4)cc32)c1C [Amcasertib]	9.3
COc1cc(Nc2ncc(F)c(Nc3ccc4c(n3)N(COP(=O)(O)O)C(=O)C(C)(C)O4)n2)cc(OC)c1OC [Fostamatinib]	0
